Over roughly 33,000 sequences, “E-score (-0.5 to 0.5)” has its median near -0.021; the highest 2% begin near 0.32. This is one part of the list.
What follows are sequences tested against T1, Zap1 (UniProt P47043) (assay: PBM E-score (8-mer binding enrichment) (E-score (-0.5 to 0.5)); higher = stronger / more preferred TF binding; most listed sequences are background and not binding sites). Conditions: protein concentration: 200 nM; construct: GST-full length.
T1 sequence: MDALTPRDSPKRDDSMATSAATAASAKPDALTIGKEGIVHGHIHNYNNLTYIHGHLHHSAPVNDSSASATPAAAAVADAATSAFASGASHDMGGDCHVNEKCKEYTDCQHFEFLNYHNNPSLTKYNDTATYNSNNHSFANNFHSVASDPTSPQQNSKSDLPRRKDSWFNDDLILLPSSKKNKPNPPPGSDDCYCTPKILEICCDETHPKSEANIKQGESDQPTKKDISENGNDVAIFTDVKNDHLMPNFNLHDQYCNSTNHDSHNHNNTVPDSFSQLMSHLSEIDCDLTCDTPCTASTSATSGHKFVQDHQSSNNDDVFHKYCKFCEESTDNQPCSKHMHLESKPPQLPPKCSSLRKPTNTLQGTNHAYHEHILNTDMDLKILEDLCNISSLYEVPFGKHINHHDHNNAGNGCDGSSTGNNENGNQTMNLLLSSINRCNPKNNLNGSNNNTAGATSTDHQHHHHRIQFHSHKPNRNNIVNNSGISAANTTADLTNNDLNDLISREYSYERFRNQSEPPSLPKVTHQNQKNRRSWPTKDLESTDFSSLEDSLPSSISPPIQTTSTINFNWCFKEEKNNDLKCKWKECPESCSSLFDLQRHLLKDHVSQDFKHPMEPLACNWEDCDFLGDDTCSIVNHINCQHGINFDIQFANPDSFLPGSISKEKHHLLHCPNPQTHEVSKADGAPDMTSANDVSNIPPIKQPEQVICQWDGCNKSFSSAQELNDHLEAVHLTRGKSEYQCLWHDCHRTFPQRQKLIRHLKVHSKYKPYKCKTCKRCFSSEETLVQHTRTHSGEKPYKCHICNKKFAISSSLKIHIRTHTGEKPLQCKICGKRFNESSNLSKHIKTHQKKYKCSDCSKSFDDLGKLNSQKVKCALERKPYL
Procedure, shortened: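 GST-tagged yeast TFs (full-length or DNA-binding domain) were made by PURExpress in vitro transcription/translation and applied at about 100-200 nM to universal all-10-mer Agilent arrays. The arrays were made double-stranded by primer extension, on fresh or once-stripped slides. Bound protein was detected with fluorescent anti-GST, and scans were normalised with masliner. Each ungapped eight-base word, pooled with its reverse complement, received an E-score (modified Wilcoxon-Mann-Whitney statistic) from the Universal PBM Analysis Suite.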

Sequence | PBM E-score
ACGGTGCA | 0.0193
ACTGGGCG | -0.138
TACTGTGA | 0.164
ACGTTGTA | -0.13
GGGACACC | 0.0204
CAAGTGCC | -0.261
ACCGATAG | 0.00318
TACAAAGA | 0.124
CCGGACCG | -0.129
AGCAATCC | -0.185
GCTTGAAC | 0.0357
CATCAGAG | -0.103
CCGGCGGA | -0.0497
GTAGATAA | 0.16
ATATCAGA | 0.0906
TCCTCCGA | -0.226
CGTGTTTC | -0.0154
TCGCCGAA | -0.0926
ACACAAGT | -0.0103
TAAGTCCA | -0.0588
ATTCTCTA | -0.0522
CCAGATGC | -0.0582
GACGCCCC | -0.125
CCAAAGAC | 0.00166
ATCGCCAG | -0.293

Sequence | PBM E-score
ATAACCAG | 0.436
AAGCGTAG | -0.19
AATGAGAT | 0.149
GCTAGACC | -0.149
GTTACGTA | 0.124
CATAGAAA | 0.203
ATGCAGGA | -0.175
AGCTCCCT | -0.284
GCTCTGGA | -0.0859
AGCGATCC | 0.0335
AACGATGT | 0.00501
CAGGCATG | -0.0885
CAGCGACG | -0.248
CGCAAGAC | -0.129
AGGAGACG | -0.379
GCGGGATA | -0.037
CCACACAG | -0.0335
GCCATATA | 0.0242
ATACATAA | 0.173
CCAATTCA | 0.00723
CTTAAGTA | -0.0613
GGTAAATA | 0.157
CCTGTACA | 0.0402
ACGGAGGG | -0.116
AGCATGGC | -0.273

Sequence | PBM E-score
CATGTGCA | 0.0255
AGTTACCA | 0.263
ACTGGGAA | -0.0602
GAAGTATC | 0.0765
ACGTGAGT | -0.107
ATCTACGA | -0.302
AAGTTATG | 0.181
CAACCAGG | 0.0949
ACCTATAT | 0.356
AGAGCACA | 0.0518
TACGACCA | 0.0572
AATCGCTC | -0.283
CCGGTAGA | 0.104
CCGCGATA | 0.0426
CATTTTAA | 0.152
AGCTCCAG | -0.173
GCACGAGA | -0.148
GCCGGTTA | 0.33
CAATTAGA | 0.0974
CACGTGAC | -0.156
AATAATCA | 0.0545
CCATCGGC | -0.194
CTCTTCAC | -0.166
CATCATGG | -0.0268
GCTTTTGA | -0.264

Sequence | PBM E-score
CCGGTGTC | 0.0219
ACTTGGTG | -0.0637
ACAGCGTG | -0.0621
AGAGAACT | -0.219
CGCACGAA | 0.0172
AGCCCGAA | -0.194
CAAGTCGA | -0.236
GACTTCAA | -0.129
GGTTTATA | 0.176
GATCGTCA | -0.131
AAGAGCAG | -0.247
ACTCGGAT | 0.00649
AAGCTATG | -0.106
GCACAACA | 0.0549
TCGCTCCA | -0.181
ACCACTGC | 0.0869
CCCCGCGG | 0.278
AGGACGCA | -0.0678
GGTCGCTA | -0.0836
CATCAGCC | -0.0837
CACCGAGG | 0.0545
AACGCGGG | -0.0658
AATGAAAC | 0.198
GATCAAGA | 0.0771
ACCCTGGG | 0.376

Sequence | PBM E-score
AAACTCGG | 0.115
ACCTCCTG | 0.0171
GCGATCCA | 0.052
AGACGCCA | -0.0612
TACCTTCA | 0.255
AGATATTA | -0.133
CCAGCCAG | -0.439
GGACTGGA | -0.164
AGGCTATA | 0.0633
CATGATCA | 0.247
CCAGAGGC | -0.0501
CTGCATTA | -0.229
TAAGAGTA | 0.165
CGACGCCC | -0.0334
CCGCTTAA | 0.0268
ACCTGGGG | -0.192
AAAGAGTC | -0.0763
AAGTGTCT | -0.177
ATTTACAG | -0.00411
ACAGATTC | 0.044
GCACCGCA | -0.0256
GTACATAA | 0.127
TGTCGACA | -0.0307
AGGTGAAG | 0.0597
GCCGCCCC | -0.0313

Sequence | PBM E-score
AAGGAATT | -0.194
ACCGCCAC | 0.0201
ACTGCAGC | -0.184
ATCGGCAA | -0.271
CTGCTGCC | -0.214
ATCTCTTA | -0.218
GGTAGACA | -0.0227
AGAGTCCC | -0.218
ATGTGCAC | -0.178
AAGCAGCT | -0.115
GCATAGAA | 0.068
CATCCCCA | -0.0691
CAAGCGAG | 0.00033
AATAGAGA | -0.242
ACGAACGG | -0.0781
GTGGAGTA | -0.143
ACGTCTCG | -0.228
CATTAATA | 0.183
ACCCAGTA | 0.0842
AACCGTGG | 0.14
CCGCGCGC | 0.0679
AAGAATTG | -0.0347
GATGCGCC | -0.0154
CAACTGGA | -0.105
GACACACC | 0.0913

Sequence | PBM E-score
TGAGCCAA | -0.12
CTATGCAC | -0.181
ATGGGAGC | -0.116
TAGCCATA | -0.138
ACGCTAGC | -0.181
AGAATTAC | 0.142
GCTAGAAA | 0.152
CCAGACCA | 0.115
GAATGTCA | -0.253
CTCACACA | -0.0262
AATGTGTC | -0.0457
CCATCCCA | -0.0802
TGACACAA | 0.0925
CGTTCTCA | -0.0832
CCCTTAGA | 0.129
CAACCATC | -0.0615
GGTTCGAC | 0.00298
CAGAGAGC | -0.282
AACGGGCC | -0.162
ACTACGCA | -0.143
AGTGCATA | -0.0475
ATCTCCCC | -0.205

From the supplement of paper PMC3334620
